# Over roughly 33,000 sequences, “E-score (-0.5 to 0.5)” has its median near -0.016; the highest 2% begin near 0.31. The list shows a part of the results.
# Biological target: Cst6 (UniProt P40535)
# Assay: PBM E-score (8-mer binding enrichment) (E-score (-0.5 to 0.5)); higher = stronger / more preferred TF binding; most listed sequences are background and not binding sites
# Conditions: protein concentration: 200 nM; construct: GST-DNA-binding domain
# Method in brief: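 Detection of bound protein used fluorescent anti-GST, with scans normalised by masliner. The proteins were GST-tagged yeast transcription factors applied at about 100-200 nM to universal all-10-mer Agilent arrays made double-stranded by primer extension. Each ungapped eight-base word, pooled with its reverse complement, was scored with an E-score from the Universal PBM Analysis Suite.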
row,Sequence,PBM E-score
1,CAGCGTGG,-0.212
2,ATTTGGTC,0.187
3,ACATAACC,0.136
4,AACCAACT,0.00494
5,GTAGAGAC,-0.104
6,CACTACCA,0.0321
7,AAGTGTGC,0.053
8,GCTGTTAC,-0.0708
9,CTCTCGAC,-0.157
10,GCGATTCA,0.0151
11,AGCTGATC,0.0363
12,AGCATAAT,0.162
13,GCCCTCTA,-0.19
14,AAAACATG,0.114
15,CAGTTACA,0.185
16,ACGCTCAG,-0.0046
17,GCAGGGCA,-0.101
18,GCAAGAGC,-0.0213
19,CACATCCG,0.0768
20,GAATCCCC,-0.387
21,ACTCAGTC,-0.134
22,GCCAGTCA,-0.229
23,CGATGACG,0.48
24,CCGATCTC,-0.145
25,CGGTACAG,0.00748

row,Sequence,PBM E-score
1,CGGTTAAG,-0.0846
2,AAGGACCT,-0.189
3,AGTGAATC,-0.0279
4,TAGTGGCA,-0.0931
5,AAAGGCAG,0.0112
6,CAACGATC,-0.192
7,TCAACGGA,0.0866
8,ATCATCGA,0.183
9,TACGCAAA,0.0712
10,ATAGAACG,0.233
11,AGTCGAGA,0.0557
12,AATTAGAC,0.14
13,ATGACTAG,0.0824
14,AGGAGCGA,-0.214
15,ATTGGTCA,-0.00277
16,ATCCGGCA,-0.205
17,CGACGGGA,-0.0959
18,AGTAGTAA,0.0733
19,AGATATCG,-0.0891
20,AGGGACCG,-0.257
21,CACTGTGA,0.0309
22,CTCTTGAA,0.094
23,ATTTATCG,0.166
24,CGAGTGCC,-0.0708
25,AACAAGGA,0.204

row,Sequence,PBM E-score
1,GGAGCTCC,-0.411
2,CCTGGGCG,-0.098
3,ACCGTTAA,0.0495
4,GAGTTTGA,0.056
5,ACGGAAAC,-0.00568
6,ACCTGGCC,-0.19
7,CATATACG,0.198
8,CGTTCATA,0.172
9,CAACCTGA,0.0578
10,CACGATAA,0.181
11,CATGCCGC,0.298
12,GGTCGGCA,-0.249
13,ACATCTTC,0.123
14,AAGAGGCT,-0.06
15,GATCGCGC,0.126
16,TCCCTAGA,-0.0752
17,GAACCCCA,-0.209
18,CGACTAAC,-0.0525
19,ATACAACC,0.139
20,ACCGATGA,0.115
21,CCCATTCA,0.0468
22,ACTTGAAA,0.037
23,AGGTTGTG,-0.0321
24,ATGGCCGC,-0.0515
25,CACGTAGA,0.0233

row,Sequence,PBM E-score
1,CGTTTGGC,-0.0433
2,CCGGGTCA,-0.179
3,CACATTTA,0.194
4,CAGAAAGA,0.0969
5,TGAAATCA,0.322
6,GCATACTA,-0.117
7,CCTACCAG,-0.356
8,CCTAGCTA,-0.162
9,TGTCGACA,0.0356
10,AGGTGAAG,-0.0272
11,GTACATAA,0.085
12,GCCGCCCC,0.0285
13,ACTGCAGC,-0.119
14,ATCGGCAA,0.0254
15,ACCGCCAC,-0.0442
16,AAGGAATT,-0.00504
17,AAAGAGTC,-0.228
18,AAGTGTCT,-0.0487
19,ATTTACAG,0.0459
20,ACAGATTC,0.0985
21,GCACCGCA,-0.0676
22,GCGATCCA,0.00124
23,AGACGCCA,-0.108
24,TACCTTCA,0.013
25,CCAGCCAG,-0.309

row,Sequence,PBM E-score
1,AGATATTA,0.123
2,CATGATCA,0.231
3,TAAGAGTA,0.0451
4,CTGCATTA,-0.0341
5,CCAGAGGC,-0.24
6,GGACTGGA,-0.296
7,AGGCTATA,-0.0813
8,CCGCTTAA,0.132
9,ACCTGGGG,-0.289
10,CGACGCCC,-0.0503
11,CATCAGCC,0.0596
12,GATCAAGA,0.117
13,AACGCGGG,0.0507
14,AATGAAAC,0.171
15,CACCGAGG,-0.133
16,AAACTCGG,-0.086
17,ACCTCCTG,-0.224
18,ACCCTGGG,-0.181
19,AACCGTGG,-0.0651
20,ACCCAGTA,-0.244
21,CCGCGCGC,0.151
22,AATAGAGA,0.0788
23,GCATAGAA,0.0408
24,CAAGCGAG,-0.00525
25,CATCCCCA,-0.078

row,Sequence,PBM E-score
1,ACGAACGG,0.225
2,GTGGAGTA,0.0574
3,ACGTCTCG,-0.0115
4,CATTAATA,0.212
5,AGAGTCCC,-0.249
6,ATGTGCAC,-0.0556
7,AAGCAGCT,-0.112
8,CTGCTGCC,-0.173
9,GGTAGACA,-0.0354
10,ATCTCTTA,0.117
11,AGAATTAC,0.2
12,GCTAGAAA,0.172
13,GAATGTCA,0.206
14,CTCACACA,-0.123
15,CCAGACCA,-0.121
16,ATGGGAGC,-0.193
17,TAGCCATA,-0.00169
18,ACGCTAGC,-0.254
19,CAACTGGA,-0.0145
20,AAGAATTG,0.182
21,GATGCGCC,0.11
22,TGAGCCAA,-0.0555
23,GACACACC,-0.0486
24,CTATGCAC,-0.221
25,ACAAATTA,0.265

row,Sequence,PBM E-score
1,ATGGGTCA,-0.0766
2,AGTGCATA,-0.0588
3,ATCTCCCC,-0.298
4,CAACCATC,-0.16
5,GGTTCGAC,-0.0824
6,ACTACGCA,-0.0194
7,CAGAGAGC,-0.216
8,AACGGGCC,-0.0834
9,TGACACAA,0.253
10,AATGTGTC,0.1
11,CCATCCCA,-0.0649
12,CGTTCTCA,-0.0164
13,CCCTTAGA,-0.181
14,AAGCGCGG,-0.0171
15,ATGAGGAA,0.122
16,CCAAGCGA,-0.309
17,CATGCGGC,0.33
18,ATAGCAAA,0.133
19,GTATGAGA,-0.00664
20,GCAAGCCC,-0.15
21,ATACTGCG,-0.131
22,AGTCACAA,0.192
23,CATGGTCC,-0.0826
24,CCCGACAC,-0.299
25,CAAGTTGG,0.0964

row,Sequence,PBM E-score
1,ATCCCATA,-0.0649
2,CGGAAAAG,-0.0314
3,AACCAGCA,-0.228
4,CTAGAGCC,-0.145
5,CCACAACC,0.0117
6,AAGAGAGT,-0.137
7,GCGTGAGA,0.13
8,ATTTTTGC,0.266
9,AACCTTTC,-0.233
10,ATTGTCGG,-0.0558
11,CATCCTGC,-0.0651
12,GCGATTAC,0.184
13,GACCGCGA,-0.138
14,CCACTCAC,-0.085
15,CCTTAATA,0.0735
16,GATGCATA,0.0137
17,ACTGGTGA,-0.0583
18,CCCCCCCA,-0.339
19,CACTCTCC,-0.189
20,CAAGATAG,-0.0558
21,GGTACAGA,0.00161
22,CCTCCCGC,-0.155
23,ACAGGACC,-0.205
24,GCGAGACC,-0.0721
25,ACTTGTTC,-0.0606

row,Sequence,PBM E-score
1,GCTGACCA,-0.124
2,GAAGAACC,-0.119
3,AATGAATT,0.245
4,AGCACGAG,-0.109
5,GGTATCAA,-0.133
6,CGAGAACG,0.0398
7,AGGGATCC,-0.409
8,ATGTCGCG,0.118
9,CAGGTACC,-0.165
10,AGTCTGCG,-0.341
11,GAAGCGTC,0.0576
12,GAACGGGC,-0.257
13,CCTCCTCG,0.094
14,CACGCAGA,-0.0519
15,TATGGGAA,-0.0855
16,AAAAACGA,0.214
17,ACTACAAC,0.0641
18,TCTCCGCA,-0.103
19,AGCATCCC,-0.29
